From the RNAGym collection of RNA variant scans (doi:10.7554/elife.90254)
The source gives no read counts; variants with many changes may rest on few reads.

B1: LINE1-mini (parent)
chain: GGCAGAGCUCAACACAGCGUGGCAAAGUGGCUGUGGCUAGACUGCC

Variants of: B1
Assay: self-cleavage, relative activity (ratio to wild type); higher = more cleavage; in vitro, sequencing; the parent is a self-cleaving ribozyme

Variant | self-cleavage
G7U A14U U20C U32G | 0.11
U9G G19A G35U | 0.01
G1C A12C G40C | 0.02
G17A G19A A26C G27C G30C U34G | 0.01
G19A G30A A41C | 0.1
A16C G17C A24U | 0.12
G2A C8U A14G A25C G36C | 0.13
C18U A24G U28C C42A | 0.1
G2A A11C A12U | 0.08
G2C A6C U9A G19C G29A C31U C37A | 0.03
C3G U28A C31U A39G G40U A41C | 0.05
C10U G21C G29U U34G G36A C37U G40U | 0.01
A6U A12U G27A | 0.07
C23U G33C C37U A39C | 2.01
A4C G5C A6C G40U C45A | 0.14
A6C G7U U9C G17U G27A U32A U34A U43G | 0
G2A G17U C18A C23A | 0.09
G2C U20C G33U C37A A41G C46A | 0.02
A4G G19C C31U C37G | 0.05
G19U G35A G36U | 0.31
A24C G30C C37U | 0.08

Variant | self-cleavage
C13A G21U G27U | 0.09
G5C U32C A41U C45U | 0.03
C3G C8A C10G G19C G33A G35C | 0.01
G1A C3U A16C G19U A24U G30C U43C | 0.22
G5U A26C G29C | 0.04
C13U G21A C23G A25U | 0.14
A16U G19A G22C | 0.16
G5U G22U U34C | 0.05
C3U C8U A16G | 0.09
A6G A14C C46A | 0.04
C3A G7U A11C A26U C46U | 0.01
A16U C23U G35U | 0.03
C8U C18A C42U | 0.04
G22C G30U A41C | 0.02
A41G C42U C45U | 0.13
G2A A24U A25C G29A | 0.43
G5U C18G G30A U32G G36U | 0.02
U20G C31A U43A | 0.02
G7C G19A G35U | 0.07
G1A C8G A25G G33C C37A U43G | 0
C3G A11U C13G G27C U32G | 0.01

Variant | self-cleavage
G27A C37G C42U U43A | 0.07
G5U A12C U34C | 0.03
A14U C15G G27C | 0.04
G7U A11U C13U C18G G19A G40C C42U | 0.01
U28G C42G U43C C45U | 0.03
G2U C3U G21U C23A C37G | 0.01
C8A C10A U34C | 0.01
A6G U20A A26G U43C | 0.02
C10A U28A A39U | 0.15
C13G A16G C37U U38G C45A | 0
G7U C13U A16C U38A | 0.19
G2A A6C C10U C23U A41U | 0.05
G7C C8A G22A G27C A41C | 0.14
G7A C10G G27A | 0.02
C8U C18U U32G | 0.02
G5A U20G A24U | 0.02
C3G C8U A12C G17U G22A G30U G35C | 0.02
G2A U20C G22C A41G | 0.06
G33U G35U C45A | 0.02
A11U A14U G33U C46U | 0
G33U A39U A41U | 0.1

Variant | self-cleavage
A6G G7C C31U | 0.06
G5A C10G C15U A26C | 0.06
G5U C13U A25U | 0.08
A11G A14U G35C U43A | 0
C3A A11G A24C C46G | 0.03
A25C U32G U43C | 0.19
G2C C13U G19U A24C C31A | 0.06
G21C A39G G40A | 0.03
C15A G27C U34G G35A C42G | 0
A6G C8G A12U G33C U43C | 0
G1A G2A A11U | 0.1
C3G C10A G44U | 0.05
A4C C13U C31U | 0.05
C3G G21U U28A C37A | 0.06
G1C C8G G22C | 0.02
G19A G27A G30A | 0.9
A6U C13A C23G | 0.15
A4C C23A G30C G44C | 0.06
G7A G17C G33U | 0.06
C13A G27A G33A A39U | 0.1
